# Data reported in paper PMC12820563, “FoxP3 forms a head-to-head dimer in vivo and stabilizes its multimerization on adjacent microsatellites”.
# The other results are listed elsewhere or left out.
# Target: T1, MBP-FoxP1dN (Mus musculus, UniProt P58462 326-579)
# T1 sequence: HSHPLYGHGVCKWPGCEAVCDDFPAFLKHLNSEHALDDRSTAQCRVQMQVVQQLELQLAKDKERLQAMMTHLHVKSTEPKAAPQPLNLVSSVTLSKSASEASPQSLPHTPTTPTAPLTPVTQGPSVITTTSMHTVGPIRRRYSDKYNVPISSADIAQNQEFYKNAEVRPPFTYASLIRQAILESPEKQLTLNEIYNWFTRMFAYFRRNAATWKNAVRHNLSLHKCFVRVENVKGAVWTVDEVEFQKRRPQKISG
# Experiment: PD-seq (MBP pull-down with sequencing); 20 mM Tris-HCl pH 7.5, 100 mM NaCl, 1.5 mM MgCl2, 0.4 uM protein, 0.1 uM dsDNA library, 30 min, room temperature, amylose pull-down; high values mean tight binding
# Conditions: protein: recombinant; tags: His6-MBP; chain copies: 2; dsDNA, one strand shown
# In short: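 In Tris pH 7.5 buffer with NaCl and MgCl2, 0.4 µM His6-MBP-tagged mouse FoxP3 or FoxP1 fragment lacking the N-terminus, from E. coli, met 0.1 µM Klenow-filled double-stranded degenerate DNA library for 30 min at room temperature. Three washes on amylose resin followed capture of the complexes, then proteinase K release of DNA, PCR barcoding and Illumina sequencing. Binding is taken as pooled-replicate reads-per-million enrichment of pull-down relative to input.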
row,Sequence,binding signal
1,GATGATTGTTCTCCCAGCTGATGAATTCCGACACTCGAGTAAACAAATTTTCCTAATCTTTCTGTTCAAGCGCCATCTAC,0.88 RPM ratio (pull-down/input)
2,GATGATTGTTCTCCCAGCTGATGAATTTGCCATGTCGAGTAAACAAATTTTCCTAATCTTTCTGTTCAAGCGCCATCTAC,0.845 RPM ratio (pull-down/input)
3,GATGATTGTTCTCCCAGCTGATGAATTATAAAAGTCGAGTAAACAAATTTTCCTAATCTTTCTGTTCAAGCGCCATCTAC,0.941 RPM ratio (pull-down/input)
4,GATGATTGTTCTCCCAGCTGATGAATTTCGTAGGTCGAGTAAACAAATTTTCCTAATCTTTCTGTTCAAGCGCCATCTAC,0.71 RPM ratio (pull-down/input)
5,GATGATTGTTCTCCCAGCTGATGAATTTAATGATTCGAGTAAACAAATTTTCCTAATCTTTCTGTTCAAGCGCCATCTAC,0.975 RPM ratio (pull-down/input)
6,GATGATTGTTCTCCCAGCTGATGAATTATTGCGCTCGAGTAAACAAATTTTCCTAATCTTTCTGTTCAAGCGCCATCTAC,1.22 RPM ratio (pull-down/input)
7,GATGATTGTTCTCCCAGCTGATGAATTTTGACATTCGAGTAAACAAATTTTCCTAATCTTTCTGTTCAAGCGCCATCTAC,1.03 RPM ratio (pull-down/input)
8,GATGATTGTTCTCCCAGCTGATGAATTGGAATGGTCGAGTAAACAAATTTTCCTAATCTTTCTGTTCAAGCGCCATCTAC,0.839 RPM ratio (pull-down/input)
9,GATGATTGTTCTCCCAGCTGATGAATTGTCCGATTCGAGTAAACAAATTTTCCTAATCTTTCTGTTCAAGCGCCATCTAC,1.02 RPM ratio (pull-down/input)
10,GATGATTGTTCTCCCAGCTGATGAATTGGCCAGATCGAGTAAACAAATTTTCCTAATCTTTCTGTTCAAGCGCCATCTAC,0.791 RPM ratio (pull-down/input)
11,GATGATTGTTCTCCCAGCTGATGAATTGCCCTCATCGAGTAAACAAATTTTCCTAATCTTTCTGTTCAAGCGCCATCTAC,0.955 RPM ratio (pull-down/input)
12,GATGATTGTTCTCCCAGCTGATGAATTGCTTATTTCGAGTAAACAAATTTTCCTAATCTTTCTGTTCAAGCGCCATCTAC,1.62 RPM ratio (pull-down/input)
13,GATGATTGTTCTCCCAGCTGATGAATTCGAAAGCTCGAGTAAACAAATTTTCCTAATCTTTCTGTTCAAGCGCCATCTAC,0.808 RPM ratio (pull-down/input)
14,GATGATTGTTCTCCCAGCTGATGAATTAAATGAATCGAGTAAACAAATTTTCCTAATCTTTCTGTTCAAGCGCCATCTAC,0.923 RPM ratio (pull-down/input)
15,GATGATTGTTCTCCCAGCTGATGAATTACGGGAGTCGAGTAAACAAATTTTCCTAATCTTTCTGTTCAAGCGCCATCTAC,0.854 RPM ratio (pull-down/input)
16,GATGATTGTTCTCCCAGCTGATGAATTCATCCCGTCGAGTAAACAAATTTTCCTAATCTTTCTGTTCAAGCGCCATCTAC,0.862 RPM ratio (pull-down/input)
17,GATGATTGTTCTCCCAGCTGATGAATTACAGTATTCGAGTAAACAAATTTTCCTAATCTTTCTGTTCAAGCGCCATCTAC,1.38 RPM ratio (pull-down/input)
18,GATGATTGTTCTCCCAGCTGATGAATTGAGCGCTTCGAGTAAACAAATTTTCCTAATCTTTCTGTTCAAGCGCCATCTAC,0.833 RPM ratio (pull-down/input)
19,GATGATTGTTCTCCCAGCTGATGAATTTGTCCTATCGAGTAAACAAATTTTCCTAATCTTTCTGTTCAAGCGCCATCTAC,1.06 RPM ratio (pull-down/input)
20,GATGATTGTTCTCCCAGCTGATGAATTGAGCATTTCGAGTAAACAAATTTTCCTAATCTTTCTGTTCAAGCGCCATCTAC,1.07 RPM ratio (pull-down/input)
21,GATGATTGTTCTCCCAGCTGATGAATTAGAGTTCTCGAGTAAACAAATTTTCCTAATCTTTCTGTTCAAGCGCCATCTAC,0.836 RPM ratio (pull-down/input)

row,Sequence,binding signal
1,GATGATTGTTCTCCCAGCTGATGAATTGCCATTTTCGAGTAAACAAATTTTCCTAATCTTTCTGTTCAAGCGCCATCTAC,1.18 RPM ratio (pull-down/input)
2,GATGATTGTTCTCCCAGCTGATGAATTATAACGTTCGAGTAAACAAATTTTCCTAATCTTTCTGTTCAAGCGCCATCTAC,1.11 RPM ratio (pull-down/input)
3,GATGATTGTTCTCCCAGCTGATGAATTGATGCTTTCGAGTAAACAAATTTTCCTAATCTTTCTGTTCAAGCGCCATCTAC,1.62 RPM ratio (pull-down/input)
4,GATGATTGTTCTCCCAGCTGATGAATTGGTGCCTTCGAGTAAACAAATTTTCCTAATCTTTCTGTTCAAGCGCCATCTAC,0.942 RPM ratio (pull-down/input)
5,GATGATTGTTCTCCCAGCTGATGAATTGGGACCTTCGAGTAAACAAATTTTCCTAATCTTTCTGTTCAAGCGCCATCTAC,0.829 RPM ratio (pull-down/input)
6,GATGATTGTTCTCCCAGCTGATGAATTTGTGAATTCGAGTAAACAAATTTTCCTAATCTTTCTGTTCAAGCGCCATCTAC,1.14 RPM ratio (pull-down/input)
7,GATGATTGTTCTCCCAGCTGATGAATTAGTAGATTCGAGTAAACAAATTTTCCTAATCTTTCTGTTCAAGCGCCATCTAC,1.02 RPM ratio (pull-down/input)
8,GATGATTGTTCTCCCAGCTGATGAATTAGGTACATCGAGTAAACAAATTTTCCTAATCTTTCTGTTCAAGCGCCATCTAC,1.09 RPM ratio (pull-down/input)
9,GATGATTGTTCTCCCAGCTGATGAATTGTTTTCATCGAGTAAACAAATTTTCCTAATCTTTCTGTTCAAGCGCCATCTAC,1.96 RPM ratio (pull-down/input)
10,GATGATTGTTCTCCCAGCTGATGAATTTATTCGCTCGAGTAAACAAATTTTCCTAATCTTTCTGTTCAAGCGCCATCTAC,1.13 RPM ratio (pull-down/input)
11,GATGATTGTTCTCCCAGCTGATGAATTCTTAAGATCGAGTAAACAAATTTTCCTAATCTTTCTGTTCAAGCGCCATCTAC,0.893 RPM ratio (pull-down/input)
12,GATGATTGTTCTCCCAGCTGATGAATTAACTCCCTCGAGTAAACAAATTTTCCTAATCTTTCTGTTCAAGCGCCATCTAC,0.791 RPM ratio (pull-down/input)
13,GATGATTGTTCTCCCAGCTGATGAATTCCGGCATTCGAGTAAACAAATTTTCCTAATCTTTCTGTTCAAGCGCCATCTAC,0.921 RPM ratio (pull-down/input)
14,GATGATTGTTCTCCCAGCTGATGAATTACAAGAATCGAGTAAACAAATTTTCCTAATCTTTCTGTTCAAGCGCCATCTAC,1.3 RPM ratio (pull-down/input)
15,GATGATTGTTCTCCCAGCTGATGAATTTATAAGGTCGAGTAAACAAATTTTCCTAATCTTTCTGTTCAAGCGCCATCTAC,0.946 RPM ratio (pull-down/input)
16,GATGATTGTTCTCCCAGCTGATGAATTACTCTACTCGAGTAAACAAATTTTCCTAATCTTTCTGTTCAAGCGCCATCTAC,1.08 RPM ratio (pull-down/input)
17,GATGATTGTTCTCCCAGCTGATGAATTTGTGTTTTCGAGTAAACAAATTTTCCTAATCTTTCTGTTCAAGCGCCATCTAC,2.61 RPM ratio (pull-down/input)
18,GATGATTGTTCTCCCAGCTGATGAATTATGTGACTCGAGTAAACAAATTTTCCTAATCTTTCTGTTCAAGCGCCATCTAC,1.08 RPM ratio (pull-down/input)
19,GATGATTGTTCTCCCAGCTGATGAATTCCCCTACTCGAGTAAACAAATTTTCCTAATCTTTCTGTTCAAGCGCCATCTAC,0.809 RPM ratio (pull-down/input)
20,GATGATTGTTCTCCCAGCTGATGAATTTCCGTAGTCGAGTAAACAAATTTTCCTAATCTTTCTGTTCAAGCGCCATCTAC,0.846 RPM ratio (pull-down/input)
21,GATGATTGTTCTCCCAGCTGATGAATTTAGACGTTCGAGTAAACAAATTTTCCTAATCTTTCTGTTCAAGCGCCATCTAC,1.01 RPM ratio (pull-down/input)

row,Sequence,binding signal
1,GATGATTGTTCTCCCAGCTGATGAATTTTTCTGGTCGAGTAAACAAATTTTCCTAATCTTTCTGTTCAAGCGCCATCTAC,0.947 RPM ratio (pull-down/input)
2,GATGATTGTTCTCCCAGCTGATGAATTTTCATCTTCGAGTAAACAAATTTTCCTAATCTTTCTGTTCAAGCGCCATCTAC,0.905 RPM ratio (pull-down/input)
3,GATGATTGTTCTCCCAGCTGATGAATTTGCCTGTTCGAGTAAACAAATTTTCCTAATCTTTCTGTTCAAGCGCCATCTAC,0.909 RPM ratio (pull-down/input)
4,GATGATTGTTCTCCCAGCTGATGAATTGTTTCGATCGAGTAAACAAATTTTCCTAATCTTTCTGTTCAAGCGCCATCTAC,1.09 RPM ratio (pull-down/input)
5,GATGATTGTTCTCCCAGCTGATGAATTGAGGGTTTCGAGTAAACAAATTTTCCTAATCTTTCTGTTCAAGCGCCATCTAC,0.859 RPM ratio (pull-down/input)
6,GATGATTGTTCTCCCAGCTGATGAATTAGCTATTTCGAGTAAACAAATTTTCCTAATCTTTCTGTTCAAGCGCCATCTAC,1.02 RPM ratio (pull-down/input)
7,GATGATTGTTCTCCCAGCTGATGAATTCAAGTTGTCGAGTAAACAAATTTTCCTAATCTTTCTGTTCAAGCGCCATCTAC,1.2 RPM ratio (pull-down/input)
8,GATGATTGTTCTCCCAGCTGATGAATTGATTGCGTCGAGTAAACAAATTTTCCTAATCTTTCTGTTCAAGCGCCATCTAC,1.24 RPM ratio (pull-down/input)
9,GATGATTGTTCTCCCAGCTGATGAATTGTAGCTCTCGAGTAAACAAATTTTCCTAATCTTTCTGTTCAAGCGCCATCTAC,1.03 RPM ratio (pull-down/input)
10,GATGATTGTTCTCCCAGCTGATGAATTTGAAGTATCGAGTAAACAAATTTTCCTAATCTTTCTGTTCAAGCGCCATCTAC,0.93 RPM ratio (pull-down/input)
11,GATGATTGTTCTCCCAGCTGATGAATTCACGCGATCGAGTAAACAAATTTTCCTAATCTTTCTGTTCAAGCGCCATCTAC,0.933 RPM ratio (pull-down/input)
12,GATGATTGTTCTCCCAGCTGATGAATTAGGTGCATCGAGTAAACAAATTTTCCTAATCTTTCTGTTCAAGCGCCATCTAC,1.28 RPM ratio (pull-down/input)
13,GATGATTGTTCTCCCAGCTGATGAATTACTCAGATCGAGTAAACAAATTTTCCTAATCTTTCTGTTCAAGCGCCATCTAC,1.07 RPM ratio (pull-down/input)
14,GATGATTGTTCTCCCAGCTGATGAATTCTCCGTTTCGAGTAAACAAATTTTCCTAATCTTTCTGTTCAAGCGCCATCTAC,0.851 RPM ratio (pull-down/input)
15,GATGATTGTTCTCCCAGCTGATGAATTACCAGAATCGAGTAAACAAATTTTCCTAATCTTTCTGTTCAAGCGCCATCTAC,1.17 RPM ratio (pull-down/input)
16,GATGATTGTTCTCCCAGCTGATGAATTTAGGAGCTCGAGTAAACAAATTTTCCTAATCTTTCTGTTCAAGCGCCATCTAC,0.796 RPM ratio (pull-down/input)
17,GATGATTGTTCTCCCAGCTGATGAATTCGCTTGTTCGAGTAAACAAATTTTCCTAATCTTTCTGTTCAAGCGCCATCTAC,0.927 RPM ratio (pull-down/input)
18,GATGATTGTTCTCCCAGCTGATGAATTTAGACGATCGAGTAAACAAATTTTCCTAATCTTTCTGTTCAAGCGCCATCTAC,0.941 RPM ratio (pull-down/input)
19,GATGATTGTTCTCCCAGCTGATGAATTTCGCTTCTCGAGTAAACAAATTTTCCTAATCTTTCTGTTCAAGCGCCATCTAC,0.866 RPM ratio (pull-down/input)
20,GATGATTGTTCTCCCAGCTGATGAATTTGGGCGATCGAGTAAACAAATTTTCCTAATCTTTCTGTTCAAGCGCCATCTAC,0.894 RPM ratio (pull-down/input)
21,GATGATTGTTCTCCCAGCTGATGAATTTATTATCTCGAGTAAACAAATTTTCCTAATCTTTCTGTTCAAGCGCCATCTAC,1.41 RPM ratio (pull-down/input)
